Among all 310,000 compounds or so, about 18,000 (5.8%) were called active. Inconclusive means that the source gave no clear call. Such entries were picked first, then a sample of the others. Calls come from the whole dose curve; as a rule, active = well fitted inhibition curve with a large enough effect; inconclusive = small, poorly fitted or top-dose-only effect, or another doubt; inactive = no such curve, though single readings can be large or run the other way. Potencies of inconclusive entries are left out as doubtful fits.
Assay: Primary qHTS for delayed death inhibitors of the malarial parasite plastid, 48 hour incubation
Conditions: P. falciparum luciferase growth in erythrocytes; series mostly up to 28.7 µM; activity change, negative = inhibition: at the top concentration
Summary of the method: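 Erythrocytes infected with P. falciparum carrying an integrated firefly luciferase reporter (2% hematocrit, 0.1% parasitemia final) were exposed to compounds in RPMI 1640 with 0.5% Albumax at 37 C, 5% CO2. Growth inhibition was scored as reduced luminescence.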
% is set by controls: 0 for no effect and ±100 for the full control effect; potency is the fitted concentration of half-maximal effect; tags give direction and shape of the fitted curve.

SMILES	activity change, negative = inhibition	Potency
Cc1nn(C)c(C(=O)Nc2ccc(Cl)c([N+](=O)[O-])c2)c1Cl	inactive: 23.3%	
CCn1c(SCC(=O)Nc2ccccc2C(=O)OC)nnc1-c1ccc(N)cc1		inconclusive [inhibitor, single point]
CCOc1ccc(N2CC(C(=O)NC3CCCCCC3)CC2=O)cc1 (centres undefined)	inactive: 9.37%	
O=C1C2CCCN2C(c2ccccc2F)N1c1ccc(F)cc1 (centres undefined)		inconclusive [inhibitor, partial curve]
CC1CCCC(NC(=O)CNC(=S)N(Cc2ccccc2)Cc2cccs2)C1C (centres undefined)		inconclusive [inhibitor, partial curve, poor fit]
COc1ccc(CN2C(=O)CC(=O)NC2=O)cc1	inactive: 1.32%	
CC(OC(=O)c1ccco1)C(=O)Nc1ncc(Cl)cc1Cl (centres undefined)	inactive: 16.8%	
CCNS(=O)(=O)c1ccc(NC(=O)CC(C)c2ccccc2)cc1 (centres undefined)	inactive: -18.9% [at 5.75 µM]	
COc1cc(C)ccc1OCCCOc1ccccc1Cl	inactive: 188%	
C=CC[N@@+]12CC[C@]34c5ccccc5N5/C=C6\C7N(/C=C(\C53)[C@@H](C[C@@H]41)/C(=C/CO)C2)c1ccccc1[C@@]71CC[N@@+]2(CC=C)C/C(=C\CO)[C@@H]6C[C@@H]12 (some centres undefined)		inconclusive [inhibitor, single point]
COc1cccc(N/C(SCc2ccccc2F)=C(/C#N)C(=O)NCc2cccs2)c1		inconclusive [inhibitor, single point]
CCN(C1CCCCC1)S(=O)(=O)c1cc(C)ccc1OC		inconclusive [inhibitor, partial curve, poor fit]
Cc1cccc(NC(=O)Cn2c(=O)n(C)c3ccccc32)c1	inactive: 33.9%	
COc1ccccc1N/C=C(\C#N)c1nc2ccccc2[nH]1		inconclusive [inhibitor, single point]
CC(C)Sc1ccccc1C(=O)Nc1ccc2c(c1)n(C)c(=O)n2C		inconclusive [inhibitor, single point]
O=C(COC(=O)c1cncc(Br)c1)NCc1ccco1		inconclusive [inhibitor, full curve]
Cc1ccc(-n2c(SCC(=O)NCc3ccco3)nc3c(sc4ccccc43)c2=O)cc1		inconclusive [inhibitor, single point]
CCCNc1c(NC(=O)COc2ccc(Cl)cc2)c(=O)oc2ccccc12		active: 0.0657 µM
CCC(=O)c1cn(CCOc2ccccc2OC)c2ccccc12		inconclusive [inhibitor, single point]
COc1ccc([C@H]2CC(=O)C=C(c3ccc4c(c3)OCO4)C2)cc1OC		inconclusive [inhibitor, single point]
COc1ccc(CCNC(=O)CSc2ccsc2[N+](=O)[O-])cc1OC		inconclusive [inhibitor, full curve, poor fit]
Cc1ccc(N=Cc2c(O)c3ccccc3n(C)c2=O)cc1	inactive: 7.85%	

SMILES	activity change, negative = inhibition	Potency
CC1(C)C2CCC1(C)C(OCC[N+](C)(C)CC(=O)OC1CCCCC1)C2 (centres undefined)		active: 1.47 µM
CN(C)c1cccc(C(=O)OC(C(=O)Nc2ccc(Cl)cc2C(F)(F)F)c2ccccc2)c1 (centres undefined)		inconclusive [inhibitor, single point]
CC(C)C(NC(=O)/C(=C\c1ccco1)NC(=O)c1ccco1)C(=O)O (centres undefined)	inactive: -16.6%	
C=CCCN(C1CCCC1)S(=O)(=O)c1ccccc1Br		inconclusive [inhibitor, single point]
COc1ccc(-c2nnc(NC(=O)C3=COCCO3)o2)cc1	inactive: 20.5%	
Nc1ccc(C(=O)N2CCN(S(=O)(=O)c3ccc(Br)cc3)CC2)cc1[N+](=O)[O-]		inconclusive [inhibitor, single point]
Fc1ccc(CSc2ncnc3sc4c(c23)CCCC4)cc1		inconclusive [inhibitor, single point]
Cc1ccc(Nc2nc(C(=O)N3CCC(C(=O)NCc4ccccc4)CC3)cs2)cc1		inconclusive [inhibitor, partial curve, poor fit]
Cc1ccc(S(=O)(=O)Nc2ccc3c(c2)nc(CCN2CCN(c4ccccn4)CC2)n3C)cc1		inconclusive [inhibitor, partial curve]
COc1ccc(C(=O)COC(=O)c2cc([N+](=O)[O-])ccc2N2CCOCC2)c(OC)c1	inactive: -7.67%	
CC(C)(C)NC(=O)COc1ccc2oc3c(c2c1)CCCC3		inconclusive [inhibitor, single point]
COC(=O)c1ccc(S(=O)(=O)N2CCN(C(c3ccccc3)c3ccccc3)CC2)n1C		active: 10.4 µM
COc1ccccc1OCCNC(=O)Cc1ccc(S(=O)(=O)N2CCOCC2)s1		inconclusive [inhibitor, single point]
COc1cccc(C2=NOC(C(=O)NCc3ccccn3)C2)c1 (centres undefined)	inactive: 1%	
O=C(NC1CC1)c1ccc(C2SCC(=O)N2Cc2ccccc2)cc1 (centres undefined)		inconclusive [inhibitor, partial curve]
N#Cc1ccsc1NC(=O)CN(Cc1ccccc1)Cc1ccccc1		inconclusive [inhibitor, single point]
COc1cc(OC)cc(C(=O)Nc2nc(-c3ccccc3)c(-c3ccccc3)o2)c1		inconclusive [inhibitor, single point]
O=C(NCc1ccccc1CN1CCCC1)c1cc2ccccc2o1		inconclusive [inhibitor, single point]
CC1(C)OC(c2ccccc2)=C/C(=C/C=C2C(=O)NC(=O)NC2=O)O1	inactive: 23.7%	
COc1ccc(CNS(=O)(=O)c2cc(OCC(N)=O)c(C)cc2Cl)cc1		inconclusive [inhibitor, single point]
O=C(CCC(=O)Nc1ccc(F)cc1)N/N=C/c1ccccc1O		inconclusive [inhibitor, single point]
Cc1ccccc1OCCn1cc(C(=O)C(=O)N2CCOCC2)c2ccccc21		inconclusive [inhibitor, single point]

Reference: PubChem BioAssay AID504832 (National Center for Advancing Translational Sciences (NCATS), 2011)
